From PubChem BioAssay AID485294 (National Center for Advancing Translational Sciences (NCATS), 2010)
Screen size: about 370,000 compounds; about 150 (0.041%) were called active. The inconclusive results got no clear call from the source; some entries with a clear call stand among them for comparison. The call rests on the fitted dose curve; in most records, active means well fitted inhibition curve with a large enough effect; inconclusive means small, poorly fitted or top-dose-only effect; inactive means flat fitted curve, though single readings scatter. No potency is given beside an inconclusive call; the fits are too rough.

target: Beta-lactamase (Escherichia coli (strain K12)) (UniProt P00811); experiment: qHTS Inhibitors of AmpC Beta-Lactamase (assay with detergent); conditions: AmpC hydrolysis of nitrocefin, absorbance 480 nm, 0.01% Triton; activity change, negative = inhibition: at 114 µM (top of the series); further: nearly all actives have a fitted effect of over 25% in size;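 on activity change, negative = inhibition: 0% = no-compound wells and -100% = no-enzyme wells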
Sequence of UniProt P00811 (P00811 whole entry, looked up): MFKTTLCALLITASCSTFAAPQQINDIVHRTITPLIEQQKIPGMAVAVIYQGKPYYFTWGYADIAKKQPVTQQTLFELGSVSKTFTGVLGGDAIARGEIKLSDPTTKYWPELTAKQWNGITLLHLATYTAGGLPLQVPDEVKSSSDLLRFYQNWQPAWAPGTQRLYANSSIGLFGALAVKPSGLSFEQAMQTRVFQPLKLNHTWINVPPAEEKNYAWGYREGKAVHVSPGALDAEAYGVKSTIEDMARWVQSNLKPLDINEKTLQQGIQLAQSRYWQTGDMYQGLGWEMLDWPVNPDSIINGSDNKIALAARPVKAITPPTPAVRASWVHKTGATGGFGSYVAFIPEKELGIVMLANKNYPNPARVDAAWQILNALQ
How it was run: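 AmpC (5.3 nM in the dispensed reagent) in 20 mM phosphate pH 7.0 with 0.01% (detergent screen) or 0.0001% Triton X-100 was preincubated with compounds for 15 min at room temperature. Nitrocefin was then added from an 800 uM solution, and hydrolysis was followed at 480 nm.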
Potency means the concentration at half of the fitted maximal effect; tags describe the fitted curve by direction and shape.

Row | SMILES | activity change, negative = inhibition | Potency
1 | COc1ccc(C(=O)NCC(c2cccnc2)N2CCN(c3ccccc3OC)CC2)cc1 (centres undefined) | inactive: 15.1% | 
2 | Cc1cc(NC(=O)CSC2=NS(=O)(=O)c3cc(Cl)ccc3N2)no1 |  | inconclusive [inhibitor, single point]
3 | CN(C)c1ccc(N=Nc2ccccc2C(=O)OCC(=O)N(C)C2CCCCC2)cc1 | inactive: -12.2% | 
4 | O=P(Cc1cc[n+]([O-])cc1)(c1ccccc1)c1ccccc1 |  | inconclusive [inhibitor, full curve, poor fit]
5 | CN(C)c1ccc(-c2nc3ccccc3n2C)cc1 | inactive: -15% | 
6 | Cc1ccc(-c2noc(-c3ccccc3Br)n2)cc1 |  | inconclusive [inhibitor, partial curve, poor fit]
7 | Cc1ccc(S(=O)(=O)N2CCC(C(=O)N[C@H](C(=O)N3CCN(C)CC3)C(C)C)CC2)cc1 |  | inconclusive [inhibitor, partial curve, poor fit]
8 | COc1ccc2cc3cc(C(=O)N4CCCCC4C)oc3nc2c1 (centres undefined) | inactive: -4.63% | 
9 | CCCN(CCO)Cc1cccc(Cl)c1 |  | inconclusive [inhibitor, single point]
10 | CCc1cc2ccc(C)cc2nc1SCC(=O)Nc1cc(OC)c(OC)cc1C(=O)O |  | inconclusive [inhibitor, full curve]
11 | CC1=CC(=O)C2=C(C)C[C@H](O)[C@@H]3[C@H](OC(=O)[C@H]3C)[C@@H]12 |  | inconclusive [inhibitor, full curve, poor fit]
12 | O=C(C(Cc1ccccc1)N1C(=O)c2ccccc2C1=O)N1c2ccccc2CCc2ccccc21 (centres undefined) | inactive: -14.6% | 
13 | O=C(Nn1cnnc1)c1ccc(F)cc1 |  | inconclusive [inhibitor, single point]
14 | Cc1ccc(-n2c(C)cc(/C=C3/C(=O)NC(=O)N(Cc4ccco4)C3=O)c2C)cc1 |  | inconclusive [inhibitor, single point]
15 | C=CCSc1nc(C)c(CC(=O)OCCCC)c(=O)[nH]1 |  | inconclusive [inhibitor, full curve, poor fit]
16 | CC(Oc1ccc(F)cc1Br)c1nc2ccccc2c(=O)[nH]1 (centres undefined) |  | inconclusive [inhibitor, full curve, poor fit]
17 | O=C1NC(=O)N(Cc2ccc(F)cc2)C(=O)/C1=C/c1cccs1 | inactive: -10.4% | 
18 | O=c1ccc(=O)n2n1CC(O)C2 |  | inconclusive [inhibitor, full curve, poor fit]
19 | COc1cccc(CN2CCNC(=O)C2CC(=O)NCCCN2CCCC2=O)c1 (centres undefined) |  | inconclusive [inhibitor, partial curve, poor fit]
20 | CCOC(=O)C1CN(C)CCC1=O (centres undefined) |  | inconclusive [inhibitor, single point]
21 | Cc1ccc(C)c(OCCSc2nnc(-c3cccnc3)n2N)c1 | inactive: -2.89% | 
22 | S=C(Nc1ccc(Oc2ccccc2)cc1)Nc1cccnc1 |  | inconclusive [inhibitor, partial curve, poor fit]

Row | SMILES | activity change, negative = inhibition | Potency
23 | COC(=O)C1=C(C)N(C2CCCCC2)C(=O)/C1=C\c1cccs1 |  | inconclusive [inhibitor, partial curve, poor fit]
24 | COc1ccc(/C=N/NC(=O)c2ccn[nH]2)cc1COc1ccc(Cl)cc1 |  | inconclusive [inhibitor, full curve, poor fit]
25 | C=CCOc1ccccc1C1C2=C(CC(C)(C)CC2=O)Nc2c1c(=O)n(C)c(=O)n2C (centres undefined) |  | inconclusive [inhibitor, single point]
26 | Cc1nc2c(c(SCC(=O)Nc3ccccc3C(F)(F)F)n1)CCC2 | inactive: 8.17% | 
27 | Cc1c(F)cccc1NS(=O)(=O)c1cccs1 | inactive: 1.9% | 
28 | Cc1ccc2nc(NC(=O)[C@H](C)N3C(=O)C4CC=CCC4C3=O)sc2c1 (some centres undefined) | inactive: 2.64% | 
29 | CCN(CC)S(=O)(=O)c1ccc(/C(O)=C(\C#N)c2nc3ccccc3n2C)cc1 |  | inconclusive [inhibitor, partial curve, poor fit]
30 | Cc1ccc(-n2cc3c(-c4cccc(Br)c4)nnc(C)c3n2)cc1 |  | inconclusive [inhibitor, full curve, poor fit]
31 | COc1cc(NC(=O)c2cccc(Cl)c2)c(OC)cc1NC(=O)CN1CCOCC1 |  | inconclusive [inhibitor, full curve, poor fit]
32 | CCOC(=O)C(NC(=O)CC)(Nc1ccc(S(=O)(=O)Nc2cc(C)on2)cc1)C(F)(F)F (centres undefined) |  | inconclusive [inhibitor, full curve, poor fit]
33 | O=C1c2ccccc2C(=O)N1CCc1nc(-c2ccncc2)no1 |  | inconclusive [inhibitor, full curve, poor fit]
34 | Cc1ccc(C(=O)N2CCCC(C(F)(F)F)C2)cc1S(=O)(=O)N1CCCCC1 (centres undefined) |  | inconclusive [inhibitor, full curve]
35 | CCCCCC/C(=N/O)c1ccccn1 |  | inconclusive [inhibitor, single point]
36 | COc1ccc(C2=NCN(c3ccc(C)cc3)C(=S)N2)cc1 |  | inconclusive [inhibitor, full curve, poor fit]
37 | O=C(NCc1ccccc1Cl)c1ccc2c(c1)N(Cc1ccccc1)C(=O)c1ccccc1S2 | inactive: 9.66% | 
38 | Cc1nc(NCCc2ccc(Cl)cc2)c2nnn(Cc3ccccc3)c2n1 |  | inconclusive [inhibitor, full curve, poor fit]
39 | Cn1nnnc1SCC(=O)Nc1cc(C(C)(C)C)nn1-c1ccccc1 |  | inconclusive [inhibitor, full curve, poor fit]
40 | CC1CC(=O)Nc2ccccc2N1S(=O)(=O)c1ccc(F)cc1F (centres undefined) | inactive: 0.177% | 
41 | CCN(CC)P1(=O)OC(c2cc(OC)c(OC)c(OC)c2)=Nc2c1c(C)nn2-c1ccccc1 (centres undefined) | inactive: -8.22% | 
42 | O=C(NC1=NCCS1)C1CCCCC1 | inactive: -17.1% | 
43 | CCC1Nc2ncnc(N3CCN(c4ccccn4)CC3)c2N(Cc2ccc(Cl)cc2)C1=O (centres undefined) |  | inconclusive [inhibitor, partial curve]
44 | COc1ccccc1Cn1ccn(CC(=O)Nc2c(C)cc(C)cc2C)c(=O)c1=O | inactive: 14.5% | 
